Hit rate of the full screen: of about 370,000 compounds, about 150 (0.041%) were called active. The shares of active, inactive and inconclusive entries below differ from those in the screen. The call rests on the fitted dose curve; in most records, active means well fitted inhibition curve with a large enough effect; inconclusive means small, poorly fitted or top-dose-only effect; inactive means flat fitted curve, though single readings scatter. No potency is given beside an inconclusive call; the fits are too rough.
The compounds below were run against Beta-lactamase (Escherichia coli (strain K12)) (UniProt P00811) (assay: qHTS Inhibitors of AmpC Beta-Lactamase (assay with detergent)). Conditions: AmpC hydrolysis of nitrocefin, absorbance 480 nm, 0.01% Triton; activity change, negative = inhibition: at 114 µM (top of the series).
UniProt P00811, sequence (P00811 whole entry, looked up): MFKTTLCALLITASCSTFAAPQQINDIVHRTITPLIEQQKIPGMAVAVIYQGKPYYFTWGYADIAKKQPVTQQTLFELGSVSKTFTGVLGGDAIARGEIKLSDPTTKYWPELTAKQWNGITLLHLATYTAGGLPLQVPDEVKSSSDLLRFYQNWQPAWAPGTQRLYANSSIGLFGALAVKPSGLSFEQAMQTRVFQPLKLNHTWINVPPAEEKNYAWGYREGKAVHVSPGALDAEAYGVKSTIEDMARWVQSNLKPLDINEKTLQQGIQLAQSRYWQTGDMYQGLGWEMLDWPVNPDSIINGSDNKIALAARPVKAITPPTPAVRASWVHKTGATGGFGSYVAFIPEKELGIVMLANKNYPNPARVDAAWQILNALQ
Summary of the method: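 20 mM phosphate pH 7.0 + 0.01% (detergent screen) or 0.0001% Triton X-100; 5.3 nM AmpC reagent; cpd preinc 15 min RT; nitrocefin (800 uM stock) to start; A480 q20 s × 4 min; Activity was normalised to no-enzyme and no-compound control wells.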
For Cc1ccc(C(=O)NCCSc2ccccc2)cc1S(=O)(=O)Nc1ccccc1, the “activity change, negative = inhibition” value was inactive: -5.81%.
For C/C(=N\O)C1/C(=N/O)CC2C1C2(C)C (configuration not stated), the Potency was inconclusive [inhibitor, full curve].
With CCCCCC1CC(CC(C)C(=O)Nc2nncs2)C(=O)O1 (configuration not stated) the Potency was inconclusive [inhibitor, full curve, poor fit].
With O=C(N/N=C/c1ccccc1F)c1ccccc1OCc1ccccc1 the Potency was inconclusive [inhibitor, partial curve, poor fit].
With Cc1cc(NC(=O)CSCc2ccc([N+](=O)[O-])cc2)no1 the “activity change, negative = inhibition” value was inactive: 2.06%.
In the case of NC(=O)COC(=O)c1oc2ccccc2c1CSc1ccc(Cl)cc1, the Potency is reported as inconclusive [inhibitor, full curve, poor fit].
For CCCn1c(SCC(=O)NCc2ccccc2)nnc1-c1ccncc1, the “activity change, negative = inhibition” value was inactive: 2.99%.
In the case of NC(=O)COC(=O)c1cc(=O)[nH]c2ccc(S(=O)(=O)Nc3ccc(F)cc3)cc12, the Potency is reported as inconclusive [inhibitor, partial curve, poor fit].
For CCCn1c(SCC(=O)NC)nnc1C(C)C, the Potency was inconclusive [inhibitor, partial curve].
For CCOc1ccc(NC(=O)/C(=C\c2ccc(OC(C)=O)c(OC)c2)NC(C)=O)cc1, the Potency was inconclusive [inhibitor, full curve, poor fit].
For COc1cc2c(cc1OC)CN(CC(=O)Nc1ccc(C)c(S(=O)(=O)N3CCOCC3)c1)CC2, the “activity change, negative = inhibition” value was inactive: -2.29%.
With CCCC(=O)N=C1SC2CS(=O)(=O)CC2N1c1ccc(C(C)=O)cc1 (configuration not stated) the Potency was inconclusive [inhibitor, full curve, poor fit].
With CCCC(=O)Nc1ccc(C(=O)N/N=C/c2ccc([N+](=O)[O-])o2)cc1 the “activity change, negative = inhibition” value was inactive: 4.26%.
With O=C(OCC#CCSc1nnc(-c2cccc3ccccc23)o1)c1ccco1 the Potency was inconclusive [inhibitor, full curve, poor fit].
In the case of O=C(NC(=S)NCc1ccccc1)c1ccc2c(c1)OCO2, the Potency is reported as inconclusive [inhibitor, single point].
C/C(=N\NC(=O)c1cc(Cl)ccc1O)c1ccc(Br)s1 was tested, and the Potency was inconclusive [inhibitor, full curve].
With Cc1ccc(N(C(=O)c2csnn2)C(C(=O)NC2CCCC2)c2ccccn2)c(C)c1 (configuration not stated) the Potency was inconclusive [inhibitor, full curve, poor fit].
In the case of COc1ccc(NS(=O)(=O)c2ccc(S(=O)(=O)N(C)C)cc2)cc1S(N)(=O)=O, the Potency is reported as inconclusive [inhibitor, full curve, poor fit].
In the case of C/C(=N\NS(=O)(=O)c1ccc(C)cc1)c1ccc(Br)s1, the Potency is reported as inconclusive [inhibitor, full curve, poor fit].
In the case of Cn1c(-c2cccc3ccccc23)n[nH]c1=S, the Potency is reported as inconclusive [inhibitor, full curve].
In the case of Cc1ccc(SCc2nc(-c3ccc(C(=O)NCCc4ccc(Cl)cc4)cc3)oc2C)cc1, the “activity change, negative = inhibition” value is reported as inactive: 18.8%.
O=[N+]([O-])c1ccc(NC(=S)N2CCc3ccccc3C2)cc1 was tested, and the Potency was inconclusive [inhibitor, full curve, poor fit].
For Cc1ccc(-c2nnc(Nc3ccccc3)c3ccccc23)cc1S(=O)(=O)NCC1CCCO1 (configuration not stated), the Potency was inconclusive [inhibitor, partial curve, poor fit].
In the case of COc1cc(OC)c2c(=O)cc(-c3cccnc3)oc2c1, the “activity change, negative = inhibition” value is reported as inactive: 0.298%.
CC1(C)CC2(CC(c3cccs3)c3cc(Cl)c(O)cc3O2)NC(=S)N1 (configuration not stated) was tested, and the “activity change, negative = inhibition” value was inactive: -10.2%.
With COc1ccccc1NC(=O)Cn1cc(C(=O)c2ccco2)c2ccccc21 the “activity change, negative = inhibition” value was inactive: -6.81%.
With Cc1ccc(S(=O)(=O)c2c(N)n(NC(=O)c3ccco3)c3nc4ccccc4nc23)cc1 the Potency was inconclusive [inhibitor, full curve, poor fit].
In the case of Cn1cc(S(=O)(=O)N2CCN(c3ccccc3F)CC2)c(=O)n(C)c1=O, the Potency is reported as inconclusive [inhibitor, full curve, poor fit].
In the case of CC(Oc1ccc2c(-c3ccccc3)cc(=O)oc2c1)C(=O)NCC(O)c1ccccc1 (configuration not stated), the Potency is reported as inconclusive [inhibitor, partial curve].
For COc1ccccc1-c1noc(-c2cccs2)n1, the Potency was inconclusive [inhibitor, full curve, poor fit].
For Cc1cc(C)nc(N/N=C/c2ccc3c(c2)OCCO3)n1, the Potency was inconclusive [inhibitor, full curve, poor fit].
With COC(=O)c1ccccc1NC(=S)NC(=O)CC(C)C the Potency was inconclusive [inhibitor, partial curve].
For CCC(=O)N1CCN(CCN=CC2=C(O)CC(c3ccc(OC)cc3)CC2=O)CC1 (configuration not stated), the Potency was inconclusive [inhibitor, full curve].
c1ccc(N2CCN(Cc3cn4cccnc4n3)CC2)cc1 was tested, and the Potency was inconclusive [inhibitor, full curve, poor fit].
With C=CCOc1ccc(Br)cc1/C=C1\NC(=S)N(C(C)=O)C1=O the Potency was inconclusive [inhibitor, full curve, poor fit].
COc1cc(/C=N\NC(=O)c2sc(N)nc2C)cc(OC)c1OC was tested, and the Potency was inconclusive [inhibitor, single point].
For COc1ccc(NS(=O)(=O)c2ccc(C)c(C(=O)N(C)Cc3ccc(OC)cc3OC)c2)cc1, the Potency was inconclusive [inhibitor, partial curve, poor fit].
c1ccc(CNCCc2c[nH]c3ccccc23)cc1 was tested, and the Potency was inconclusive [inhibitor, full curve, poor fit].
In the case of CCOc1ccccc1/C=N\Nc1cnn(Cc2ccccc2)c(=O)c1Cl, the Potency is reported as inconclusive [inhibitor, single point].
In the case of CC(=O)c1c(C(C)=O)c(C)n(-c2nc(-c3ccc(Br)cc3)c(C)s2)c1C, the Potency is reported as inconclusive [inhibitor, single point].
For Cc1ccc2nc(C)cc(OCC(=O)O)c2c1, the Potency was inconclusive [inhibitor, full curve, poor fit].
O=C(CCN1C(=O)c2ccccc2C1=O)NCc1ccc(F)cc1 was tested, and the Potency was inconclusive [inhibitor, partial curve, poor fit].
With COc1ccc(-c2nnc(NC(=O)CS(=O)(=O)c3ccc(F)cc3)o2)cc1 the Potency was inconclusive [inhibitor, full curve, poor fit].
O=c1c(O)c(-c2cc(O)c(O)c(O)c2)oc2cc(O)cc(O)c12 was tested, and the Potency was inconclusive [inhibitor, partial curve].
For CCc1ccccc1Nc1nc(N)nc(COC(=O)c2cccn2C)n1, the Potency was inconclusive [inhibitor, partial curve, poor fit].
With CC1CN=C(Nc2ccc(N(C)C)cc2)S1 (configuration not stated) the Potency was inconclusive [inhibitor, full curve].
For C/C(=N\NC(=S)NCc1ccccc1)c1ccc(Cl)cc1, the Potency was inconclusive [inhibitor, partial curve, poor fit].
For COc1cccc(-c2nn(-c3ccccc3)cc2C(=O)NCC(=O)O)c1, the Potency was inconclusive [inhibitor, full curve, poor fit].
With CCCCCCCc1ccc(C2NC(=S)NC3=C2C(=O)c2ccccc23)cc1 (configuration not stated) the Potency was inconclusive [inhibitor, full curve, poor fit].
For COC(=O)CSCc1nc2ccccc2[nH]c1=O, the Potency was inconclusive [inhibitor, single point].
Cc1ccc(NC(=O)CSc2nc(O)cc(=O)n2C)cc1 was tested, and the Potency was inconclusive [inhibitor, full curve, poor fit].
In the case of Cc1nc(-c2ccc(C)c(N3CCN(C(=O)Nc4cccc(Cl)c4C)CC3)c2)no1, the “activity change, negative = inhibition” value is reported as inactive: 5.41%.
CC(=O)c1ccc(N2C(=O)C3C(C2=O)C(C(=O)c2ccc(Cl)cc2)N2CCCC32)cc1 (configuration not stated) was tested, and the Potency was inconclusive [inhibitor, full curve, poor fit].
For CCOC(=O)C1CCCN(Cc2cn3c(-c4cccc(Br)c4)nnc3s2)C1 (configuration not stated), the “activity change, negative = inhibition” value was inactive: 17%.
For CCOc1ccc(C(=O)NC(Cc2ccccc2)C(=O)OC)cc1 (configuration not stated), the “activity change, negative = inhibition” value was inactive: -9.37%.
With CCNc1c([N+](=O)[O-])c(=O)n(CC)c2ccccc12 the “activity change, negative = inhibition” value was inactive: 2.62%.
For CCOC(=O)c1ccc(Oc2cc(C)nc(SC)n2)cc1, the “activity change, negative = inhibition” value was inactive: -7.82%.
In the case of Cc1nc(S/C(C(=O)O)=C2/C(=O)Nc3ccccc32)n[nH]1, the “activity change, negative = inhibition” value is reported as inactive: -2.33%.
For Cc1cccc(N2CCN(C(=O)CS(=O)(=O)Cc3nc(-c4ccccc4C)oc3C)CC2C)c1 (configuration not stated), the “activity change, negative = inhibition” value was inactive: 7.9%.
In the case of CSc1cccc(NC(=O)CN(C)S(=O)(=O)c2ccccc2)c1, the Potency is reported as inconclusive [inhibitor, single point].
In the case of COc1ccc(OC)c(NC(=O)Cn2c(=O)cc(-c3ccccc3)c3c(C)nn(C)c32)c1, the “activity change, negative = inhibition” value is reported as inactive: 5.06%.
With O=C(CNC(=O)c1ccc(Br)cc1)c1ccc(Br)cc1 the “activity change, negative = inhibition” value was inactive: -3.21%.
In the case of CCOC(=O)CNC(=O)N1CCN(c2nnc(C)c3c(C)n(-c4ccc(Cl)cc4)nc23)CC1, the “activity change, negative = inhibition” value is reported as inactive: -9%.
O=C(Nc1ccccc1)C1CCN(C(=O)c2ccc(Br)cc2)CC1 was tested, and the Potency was inconclusive [inhibitor, full curve].
COc1ccc(CCNC(=O)NC(C(F)(F)F)C(F)(F)F)cc1OC was tested, and the Potency was inconclusive [inhibitor, full curve].
Cc1nnsc1SCCNC(=O)Nc1ccc(Cl)cc1 was tested, and the “activity change, negative = inhibition” value was inactive: 3.05%.
In the case of CN(Cc1ccccc1)C(=O)c1ccc(Cl)c([N+](=O)[O-])c1, the Potency is reported as inconclusive [inhibitor, partial curve, poor fit].
Further: nearly all actives have a fitted effect of over 25% in size.
Potency means the concentration at half of the fitted maximal effect; tags describe the fitted curve by direction and shape.
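Wherever activity change, negative = inhibition is given: 0% = no-compound wells and -100% = no-enzyme wells.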
